Reference: the supplement of paper PMC4604168 (melanoma cell lines)
This is one part of the list. Repeats are few or missing, and single values can be far off.

Tests used:
Assay in all cases: cell count relative to DMSO control; melanoma cells; higher = more viable cells
Conditions in all cases: library dose: standard library concentration; 72 h
G361 = system: G361
IPC-298 = system: IPC-298
IST-MEL1 = system: IST-MEL1
LB2518-MEL = system: LB2518-MEL
LOXIMVI = system: LOXIMVI
MEL-HO = system: MEL-HO
MZ2-MEL = system: MZ2-MEL
MeWo = system: MeWo
RPMI7951 = system: RPMI7951
RVH-421 = system: RVH-421
SkMel28 = system: SkMel28
SkMel2 = system: SkMel2
SkMel30 = system: SkMel30
SkMel5 = system: SkMel5
UACC257 = system: UACC257
UACC62 = system: UACC62
WM115 = system: WM115
WM1716 = system: WM1716
WM1745 = system: WM1745
WM3526 = system: WM3526
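Also: cells treated in 1,536-well plates, then fixed and DAPI-stained, with nuclei counted from automated high-throughput microscope images.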

| SMILES | cell count (G361) [%] | cell count (IPC-298) [%] | cell count (IST-MEL1) [%] | cell count (LB2518-MEL) [%] | cell count (LOXIMVI) [%] | cell count (MEL-HO) [%] | cell count (MZ2-MEL) [%] | cell count (MeWo) [%] | cell count (RPMI7951) [%] | cell count (RVH-421) [%] | cell count (SkMel28) [%] | cell count (SkMel2) [%] | cell count (SkMel30) [%] | cell count (SkMel5) [%] | cell count (UACC257) [%] | cell count (UACC62) [%] | cell count (WM115) [%] | cell count (WM1716) [%] | cell count (WM1745) [%] | cell count (WM3526) [%] |
| --- | --- | --- | --- | --- | --- | --- | --- | --- | --- | --- | --- | --- | --- | --- | --- | --- | --- | --- | --- | --- |
| Cn1sc(=O)n(Cc2ccccc2)c1=O + C[C@]12O[C@H](C[C@]1(O)CO)n1c3ccccc3c3c4c(c5c6ccccc6n2c5c31)CNC4=O [Lestaurtinib] (first compound 2 µM, partner dose 0.02 µM) | 88.5 | 83.1 | 104 | 55.8 | 110 | 75.1 | 96.2 | 70.1 | 69.7 | 102 | 70.9 | 88.9 | 68.5 | 60.8 | 100 | 80 | 69.4 | 99.6 | 104 | 57.2 |
| COc1ccc(C2=N[C@@H](c3ccc(Cl)cc3)[C@@H](c3ccc(Cl)cc3)N2C(=O)N2CCNC(=O)C2)c(OC(C)C)c1 [Nutlin-3] + N.N.[Cl][Pt][Cl] [cisplatin] (first compound 0.5 µM, partner dose 8 µM) | 73.4 | 85.8 | 91.8 | 73.5 | 41.3 | 76.5 | 86.8 | 82.2 | 83 | 67.1 | 83.9 | 84.2 | 98.5 | 71.3 | 70.5 | 60.4 | 79.7 | 78.6 | 77.3 | 90.4 |
| CC(=O)c1c(C)c2cnc(Nc3ccc(N4CCNCC4)cn3)nc2n(C2CCCC2)c1=O [palbociclib] + C[As](C)SC[C@H](NC(=O)CC[C@H](N)C(=O)O)C(=O)NCC(=O)O [Darinaparsin] (first compound 0.2 µM, partner dose 2 µM) | 75.2 | 75.1 | 85.7 | 65.9 | 103 | 81.4 | 74.3 | 62.8 | 65.5 | 82.5 | 51.6 | 83.5 | 79.8 | 46.1 | 68.4 | 68.7 | 58.1 | 41.1 | 71.3 | 41.6 |
| O=c1[nH]nc(Sc2ncc([N+](=O)[O-])s2)n1-c1ccc2c(c1)OCCO2 + N.N.[Cl][Pt][Cl] [cisplatin] (first compound 1 µM, partner dose 8 µM) | 96.9 | 110 | 96.8 | 106 | 57.4 | 93.3 | 89.9 | 90 | 83.6 | 21.3 | 99.7 | 105 | 115 | 109 | 78.2 | 103 | 90.3 | 101 | 92.3 | 111 |
| Cc1cc(SCc2sc(-c3ccc(C(F)(F)F)c(F)c3)nc2C)ccc1OCC(=O)O + O=C(Oc1ccc([N+](=O)[O-])cc1)N1CCC(C(O)(c2ccc3c(c2)OCO3)c2ccc3c(c2)OCO3)CC1 [JZL184] (first compound 10 µM, partner dose 5 µM) | 96.2 | 99.3 | 111 | 117 | 136 | 102 | 103 | 97.6 | 115 | 120 | 104 | 97.1 | 103 | 94.8 | 101 | 90.6 | 100 | 103 | 103 | 93.9 |
| O=c1[nH]nc(Sc2ncc([N+](=O)[O-])s2)n1-c1ccc2c(c1)OCCO2 + Cn1cc(C2=C(c3cn(C4CCN(Cc5ccccn5)CC4)c4ccccc34)C(=O)NC2=O)c2ccccc21 [Enzastaurin] (first compound 1 µM, partner dose 4 µM) | 94.3 | 114 | 106 | 122 | 101 | 95.6 | 127 | 112 | 72.2 | 56.9 | 112 | 116 | 104 | 97.8 | 99.9 | 68.1 | 117 | 77.8 | 92.7 | 122 |
| N#CC[C@H](C1CCCC1)n1cc(-c2ncnc3[nH]ccc23)cn1 [ruxolitinib] + C[As](C)SC[C@H](NC(=O)CC[C@H](N)C(=O)O)C(=O)NCC(=O)O [Darinaparsin] (first compound 5 µM, partner dose 2 µM) | 78.3 | 85.3 | 80.2 | 104 | 102 | 80.1 | 73.4 | 77.7 | 62.3 | 66 | 72.1 | 86.1 | 94.3 | 41 | 74 | 66.1 | 57.8 | 62.8 | 70.3 | 63.4 |
| Cn1nnc2c(C(N)=O)ncn2c1=O [temozolomide] + O=C(Oc1ccc([N+](=O)[O-])cc1)N1CCC(C(O)(c2ccc3c(c2)OCO3)c2ccc3c(c2)OCO3)CC1 [JZL184] (first compound 10 µM, partner dose 5 µM) | 103 | 74.2 | 100 | 62.6 | 93.6 | 97.3 | 79.1 | 106 | 102 | 97.4 | 34 | 112 | 56.8 | 103 | 104 | 55.4 | 86 | 52.3 | 99.7 | 89.3 |
| CCCS(=O)(=O)Nc1ccc(F)c(C(=O)c2c[nH]c3ncc(Cl)cc23)c1F + C[As](C)SC[C@H](NC(=O)CC[C@H](N)C(=O)O)C(=O)NCC(=O)O [Darinaparsin] (first compound 0.4 µM, partner dose 2 µM) | 55 | 77.1 | 77.9 | 94.6 | 83.7 | 86.2 | 83.9 | 93.5 | 111 | 61.8 | 63.5 | 106 | 98.6 | 59.5 | 84.8 | 56.1 | 82.8 | 66.5 | 109 | 49.9 |
| O=C(Oc1ccc([N+](=O)[O-])cc1)N1CCC(C(O)(c2ccc3c(c2)OCO3)c2ccc3c(c2)OCO3)CC1 + Cn1cc(/C=C2\C(=O)Nc3cccnc32)c2ccccc21 [GW441756] (first compound 5 µM, partner dose 2 µM) | 86.6 | 92.9 | 95.5 | 116 | 108 | 99.7 | 82.5 | 94.8 | 70.1 | 85 | 91.3 | 96.8 | 102 | 78.6 | 85.4 | 98.1 | 97.3 | 82.1 | 79.1 | 86.9 |
| COc1ccc(C2=N[C@@H](c3ccc(Cl)cc3)[C@@H](c3ccc(Cl)cc3)N2C(=O)N2CCNC(=O)C2)c(OC(C)C)c1 [Nutlin-3] + C[C@]12O[C@H](C[C@]1(O)CO)n1c3ccccc3c3c4c(c5c6ccccc6n2c5c31)CNC4=O [Lestaurtinib] (first compound 0.5 µM, partner dose 0.02 µM) | 64.3 | 74.7 | 87.1 | 55.4 | 57.7 | 81.2 | 81.1 | 78.8 | 107 | 83.1 | 57.5 | 83.4 | 93.9 | 56.2 | 60.9 | 60.3 | 59.7 | 65 | 67.4 | 65.8 |
| CO[C@@H]1[C@H](N(C)C(=O)c2ccccc2)C[C@H]2O[C@]1(C)n1c3ccccc3c3c4c(c5c6ccccc6n2c5c31)C(=O)NC4 [Midostaurin] + O=C(Oc1ccc([N+](=O)[O-])cc1)N1CCC(C(O)(c2ccc3c(c2)OCO3)c2ccc3c(c2)OCO3)CC1 [JZL184] (first compound 0.4 µM, partner dose 5 µM) | 46.9 | 55.1 | 64.8 | 50.3 | 61.4 | 64 | 43.2 | 62.1 | 33 | 54.2 | 39.5 | 61.3 | 52.5 | 54.1 | 35.6 | 39.8 | 38.6 | 28 | 25.6 | 52.6 |
| Cc1cc(SCc2sc(-c3ccc(C(F)(F)F)c(F)c3)nc2C)ccc1OCC(=O)O + Oc1cc(-c2nc(-c3ccccc3)[nH]c2-c2ccncc2)ccc1Cl [L779450] (first compound 10 µM, partner dose 1 µM) | 69.9 | 86.1 | 96.3 | 91 | 104 | 89 | 87.3 | 84.9 | 103 | 53 | 38.8 | 38.7 | 83 | 70 | 91.4 | 43.6 | 55.2 | 72.6 | 58.9 | 45.8 |
| CCCCCCCCCCCCCCCCCCOP(=O)([O-])OC1CC[N+](C)(C)CC1 [Perifosine] + N.N.[Cl][Pt][Cl] [cisplatin] (first compound 2 µM, partner dose 8 µM) | 73.3 | 98.2 | 90.5 | 78.8 | 67 | 93.3 | 86.5 | 97.4 | 15 | 83.8 | 80.3 | 92.4 | 86.8 | 91.9 | 81.7 | 101 | 102 | 97.7 | 101 | 81.3 |
| C/C(O)=C(\C#N)C(=O)Nc1cc(Br)ccc1Br + O=C(Oc1ccc([N+](=O)[O-])cc1)N1CCC(C(O)(c2ccc3c(c2)OCO3)c2ccc3c(c2)OCO3)CC1 [JZL184] (first compound 10 µM, partner dose 5 µM) | 98.4 | 96.2 | 102 | 123 | 94.3 | 90.6 | 82.1 | 90.4 | 96.5 | 81.8 | 95.7 | 94.1 | 86.2 | 84 | 83.1 | 87.9 | 68.5 | 86 | 102 | 84.3 |
| CC[C@]1(O)C[C@H]2CN(CCc3c([nH]c4ccccc34)[C@@](C(=O)OC)(c3cc4c(cc3OC)N(C=O)[C@H]3[C@@](O)(C(=O)OC)[C@H](OC(C)=O)[C@]5(CC)C=CCN6CC[C@]43[C@@H]65)C2)C1 [vincristine] + Cn1cc(C2=C(c3cn(C4CCN(Cc5ccccn5)CC4)c4ccccc34)C(=O)NC2=O)c2ccccc21 [Enzastaurin] (first compound 0.0005 µM, partner dose 4 µM) | 71.2 | 87.7 | 45.4 | 44.5 | 67.7 | 75.8 | 62.3 | 69.1 | 16.6 | 40.8 | 34.4 | 47.4 | 41.9 | 47.8 | 70 | 42.9 | 46.3 | 36.8 | 45.6 | 51.2 |
